# According to the supplement of paper PMC4604168 (melanoma cell lines):
# The list shows a part of the results. Repeats are few or missing, and single values can be far off.
# How the values were obtained:
# Assay in all cases: cell count relative to DMSO control; melanoma cells; higher = more viable cells
# Details in all cases: library dose: low library concentration; 72 h
# MZ2-MEL = test system: MZ2-MEL
# MeWo = test system: MeWo
# RPMI7951 = test system: RPMI7951
# RVH-421 = test system: RVH-421
# SkMel28 = test system: SkMel28
# SkMel2 = test system: SkMel2
# SkMel30 = test system: SkMel30
# UACC62 = test system: UACC62
# SkMel5 = test system: SkMel5
# 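Note: cell number obtained by counting DAPI-stained nuclei in high-throughput microscope images with image analysis software, screen run in 1,536-well plates.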
SMILES,cell count (MZ2-MEL),cell count (MeWo),cell count (RPMI7951),cell count (RVH-421),cell count (SkMel28),cell count (SkMel2),cell count (SkMel30),cell count (UACC62),cell count (SkMel5)
"CC[C@]1(O)C[C@H]2CN(CCc3c([nH]c4ccccc34)[C@@](C(=O)OC)(c3cc4c(cc3OC)N(C=O)[C@H]3[C@@](O)(C(=O)OC)[C@H](OC(C)=O)[C@]5(CC)C=CCN6CC[C@]43[C@@H]65)C2)C1 [vincristine] + CN(c1ncccc1CNc1nc(Nc2ccc3c(c2)CC(=O)N3)ncc1C(F)(F)F)S(C)(=O)=O [PF562271] (first compound 0.0001 µM, partner dose 0.08 µM)",91.4%,80%,59.8%,94.7%,61.5%,92%,59.6%,43.4%,
"N#CC[C@H](C1CCCC1)n1cc(-c2ncnc3[nH]ccc23)cn1 [ruxolitinib] + COc1ccc(Cl)c(Nc2nc3ccccc3nc2NS(=O)(=O)c2cccc(NC(=O)C(C)(C)N)c2)c1 [XL147] (first compound 1 µM, partner dose 0.8 µM)",112%,98.1%,105%,109%,125%,107%,101%,122%,
"N#CC[C@H](C1CCCC1)n1cc(-c2ncnc3[nH]ccc23)cn1 [ruxolitinib] + O=C(O)c1ccc2c(c1)nc(Nc1cccc(Cl)c1)c1ccncc12 [CX4945] (first compound 1 µM, partner dose 0.4 µM)",83.7%,91.4%,113%,99.9%,95.3%,102%,92%,97.7%,
"CC[C@]1(O)C[C@H]2CN(CCc3c([nH]c4ccccc34)[C@@](C(=O)OC)(c3cc4c(cc3OC)N(C=O)[C@H]3[C@@](O)(C(=O)OC)[C@H](OC(C)=O)[C@]5(CC)C=CCN6CC[C@]43[C@@H]65)C2)C1 [vincristine] + O=C(/C=C/c1cccnc1)NCCCCC1CCN(C(=O)c2ccccc2)CC1 [FK866] (first compound 0.0001 µM, partner dose 0.01 µM)",46.1%,80.4%,58.3%,55.5%,90%,53.9%,59.9%,63.8%,
"CC[C@]1(O)C[C@H]2CN(CCc3c([nH]c4ccccc34)[C@@](C(=O)OC)(c3cc4c(cc3OC)N(C=O)[C@H]3[C@@](O)(C(=O)OC)[C@H](OC(C)=O)[C@]5(CC)C=CCN6CC[C@]43[C@@H]65)C2)C1 [vincristine] + Cc1ccc(Nc2nccc(N(C)c3ccc4c(C)n(C)nc4c3)n2)cc1S(N)(=O)=O [Pazopanib] (first compound 0.0001 µM, partner dose 0.4 µM)",80.5%,98.6%,61.2%,61.9%,63.3%,83.4%,69%,69.1%,
"Cc1cc(Nc2cc(N3CCN(C)CC3)nc(Sc3ccc(NC(=O)C4CC4)cc3)n2)n[nH]1 [Tozasertib] + Cc1ccc(Nc2nccc(N(C)c3ccc4c(C)n(C)nc4c3)n2)cc1S(N)(=O)=O [Pazopanib] (first compound 0.006 µM, partner dose 0.4 µM)",83.6%,100%,84.1%,106%,73.9%,95.7%,95.3%,87.9%,
"Cc1cc(Nc2cc(N3CCN(C)CC3)nc(Sc3ccc(NC(=O)C4CC4)cc3)n2)n[nH]1 [Tozasertib] + C=C(c1ccc(C(=O)O)cc1)c1cc2c(cc1C)C(C)(C)CCC2(C)C [Bexarotene] (first compound 0.006 µM, partner dose 2 µM)",96.3%,91.2%,88%,78.8%,74.3%,84.4%,107%,78.1%,
"CC[C@]1(O)C[C@H]2CN(CCc3c([nH]c4ccccc34)[C@@](C(=O)OC)(c3cc4c(cc3OC)N(C=O)[C@H]3[C@@](O)(C(=O)OC)[C@H](OC(C)=O)[C@]5(CC)C=CCN6CC[C@]43[C@@H]65)C2)C1 [vincristine] + CN1CCN(c2ccc3nc(-c4c(N)c5c(F)cccc5[nH]c4=O)[nH]c3c2)CC1 [Dovitinib] (first compound 0.0001 µM, partner dose 0.1 µM)",93.8%,86.9%,73.8%,95.6%,66.5%,80.2%,63.4%,67.2%,
"CC[C@]1(O)C[C@H]2CN(CCc3c([nH]c4ccccc34)[C@@](C(=O)OC)(c3cc4c(cc3OC)N(C=O)[C@H]3[C@@](O)(C(=O)OC)[C@H](OC(C)=O)[C@]5(CC)C=CCN6CC[C@]43[C@@H]65)C2)C1 [vincristine] + O=C(O)c1ccc2c(c1)nc(Nc1cccc(Cl)c1)c1ccncc12 [CX4945] (first compound 0.0001 µM, partner dose 0.4 µM)",91%,87.6%,53%,74.1%,89.6%,94%,60.4%,68%,
"N#CC[C@H](C1CCCC1)n1cc(-c2ncnc3[nH]ccc23)cn1 [ruxolitinib] + COCC[n+]1c2c(n(Cc3cnccn3)c1C)C(=O)c1ccccc1C2=O [YM155] (first compound 1 µM, partner dose 0.0004 µM)",53.4%,101%,63.4%,111%,120%,102%,99.2%,98.7%,
"N#CC[C@H](C1CCCC1)n1cc(-c2ncnc3[nH]ccc23)cn1 [ruxolitinib] + O=C(/C=C/c1cccnc1)NCCCCC1CCN(C(=O)c2ccccc2)CC1 [FK866] (first compound 1 µM, partner dose 0.01 µM)",51%,89.3%,93.3%,70.8%,107%,62%,113%,125%,
"N#CC[C@H](C1CCCC1)n1cc(-c2ncnc3[nH]ccc23)cn1 [ruxolitinib] + Cc1nc(Nc2ncc(C(=O)Nc3c(C)cccc3Cl)s2)cc(N2CCN(CCO)CC2)n1 [dasatanib] (first compound 1 µM, partner dose 0.004 µM)",75.4%,89%,72.7%,92.9%,91.5%,96.7%,98.7%,74.6%,
"N#CC[C@H](C1CCCC1)n1cc(-c2ncnc3[nH]ccc23)cn1 [ruxolitinib] + CS(=O)(=O)c1ccc(C(=O)Nc2ccc(Cl)c(-c3ccccn3)c2)c(Cl)c1 [vismodegib] (first compound 1 µM, partner dose 1 µM)",92.5%,95.8%,69.6%,86.7%,108%,101%,99.8%,108%,
"N#CC[C@H](C1CCCC1)n1cc(-c2ncnc3[nH]ccc23)cn1 [ruxolitinib] + CC1(C)NC(=O)N(c2ccc([N+](=O)[O-])c(C(F)(F)F)c2)C1=O [nilutamide] (first compound 1 µM, partner dose 1 µM)",103%,83%,109%,93.9%,112%,92.8%,,117%,117%
"CC[C@]1(O)C[C@H]2CN(CCc3c([nH]c4ccccc34)[C@@](C(=O)OC)(c3cc4c(cc3OC)N(C=O)[C@H]3[C@@](O)(C(=O)OC)[C@H](OC(C)=O)[C@]5(CC)C=CCN6CC[C@]43[C@@H]65)C2)C1 [vincristine] + Cn1nnc2c(C(N)=O)ncn2c1=O [temozolomide] (first compound 0.0001 µM, partner dose 2 µM)",97.4%,69.3%,61.6%,67.4%,69.7%,106%,47.8%,46.3%,
"CC[C@]1(O)C[C@H]2CN(CCc3c([nH]c4ccccc34)[C@@](C(=O)OC)(c3cc4c(cc3OC)N(C=O)[C@H]3[C@@](O)(C(=O)OC)[C@H](OC(C)=O)[C@]5(CC)C=CCN6CC[C@]43[C@@H]65)C2)C1 [vincristine] + CO[C@H]1C[C@@H]2CC[C@@H](C)[C@@](O)(O2)C(=O)C(=O)N2CCCC[C@H]2C(=O)O[C@H]([C@H](C)C[C@@H]2CC[C@@H](OCCO)[C@H](OC)C2)CC(=O)[C@H](C)/C=C(\C)[C@@H](O)[C@@H](OC)C(=O)[C@H](C)C[C@H](C)/C=C/C=C/C=C/1C [everolimus] (first compound 0.0001 µM, partner dose 0.02 µM)",74.3%,57.6%,46.2%,75.5%,36.3%,,44.3%,38.4%,
"Cc1cc(Nc2cc(N3CCN(C)CC3)nc(Sc3ccc(NC(=O)C4CC4)cc3)n2)n[nH]1 [Tozasertib] + C=CCNC1=C2C[C@@H](C)C[C@H](OC)[C@H](O)[C@@H](C)/C=C(\C)[C@H](OC(N)=O)[C@@H](OC)/C=C\C=C(/C)C(=O)NC(=CC1=O)C2=O [Tanespimycin] (first compound 0.006 µM, partner dose 0.002 µM)",98.3%,83.3%,110%,81.6%,87.8%,90.1%,98.2%,91.3%,
"Cc1cc(Nc2cc(N3CCN(C)CC3)nc(Sc3ccc(NC(=O)C4CC4)cc3)n2)n[nH]1 [Tozasertib] + CNC(=O)c1cc(Oc2ccc(NC(=O)Nc3ccc(Cl)c(C(F)(F)F)c3)cc2)ccn1 [sorafenib] (first compound 0.006 µM, partner dose 0.4 µM)",100%,96.4%,115%,88.5%,86.1%,102%,114%,86.3%,
"CC[C@]1(O)C[C@H]2CN(CCc3c([nH]c4ccccc34)[C@@](C(=O)OC)(c3cc4c(cc3OC)N(C=O)[C@H]3[C@@](O)(C(=O)OC)[C@H](OC(C)=O)[C@]5(CC)C=CCN6CC[C@]43[C@@H]65)C2)C1 [vincristine] + COc1ccc(C2=N[C@@H](c3ccc(Cl)cc3)[C@@H](c3ccc(Cl)cc3)N2C(=O)N2CCNC(=O)C2)c(OC(C)C)c1 [Nutlin-3] (first compound 0.0001 µM, partner dose 0.1 µM)",101%,58.2%,53.4%,99.2%,68.4%,88.3%,44%,57.1%,
"CC[C@]1(O)C[C@H]2CN(CCc3c([nH]c4ccccc34)[C@@](C(=O)OC)(c3cc4c(cc3OC)N(C=O)[C@H]3[C@@](O)(C(=O)OC)[C@H](OC(C)=O)[C@]5(CC)C=CCN6CC[C@]43[C@@H]65)C2)C1 [vincristine] + C[C@]1(c2nc3c(C(N)=O)cccc3[nH]2)CCCN1 [Veliparib] (first compound 0.0001 µM, partner dose 1.4 µM)",70.5%,54.2%,41.4%,74.5%,55.5%,72.1%,51.2%,48.2%,
